# Measurements from the supplement of paper PMC4967469.
# pIC50: −log10 of the molar value. The IC50 comes from the fitted curve, where viability falls to half of the control; a limit (>, <) means that the fit lies beyond the doses tested. AUC is the area under the same curve over the 256-fold range up to the top dose, as a fraction; values near 1 show little effect. For part of these data: Any top dose called inferred is not printed in the source and was worked back from the curve model. For part of these data: Drugs with an entry number were screened twice under separate entries, and the two screens often disagree.
# Experiments:
# Assay in all cases: Viability of human cancer cell lines after 72 h of drug (GDSC screen)
# KU-55933 = compound: O=c1cc(-c2cccc3c2Sc2ccccc2S3)oc(N2CCOCC2)c1 [KU-55933]; settings: top dose 10 µM
# Description: (§1)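 Human cancer cell lines in 384-well plates, medium with 10% serum, drug for 72 h over a 256-fold dose range (nine 2-fold or five 4-fold steps up to the top dose). Adherent lines were fixed and stained with the nucleic acid dye Syto60, suspension lines read with resazurin; signal relative to control wells, capped at 0 and 100%. One two-parameter sigmoid per drug and line, fitted in a mixed model over all curves with the slope shared within a line.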
# CHIR-99021 = compound: Cc1cnc(-c2cnc(NCCNc3ccc(C#N)cn3)nc2-c2ccc(Cl)cc2Cl)[nH]1 [CHIR-99021]
# Description: as §1
# Zibotentan = compound: COc1nc(C)cnc1NS(=O)(=O)c1cccnc1-c1ccc(-c2nnco2)cc1 [Zibotentan]; settings: top dose 20 µM; top dose inferred
# Description: as §1
# ABT-888 = compound: C[C@]1(c2nc3c(C(N)=O)cccc3[nH]2)CCCN1 [ABT-888]; settings: top dose 5 µM; top dose inferred
# Description: as §1
# QL-X-138 = compound: C=CC(=O)Nc1cc(-n2c(=O)ccc3cnc4ccc(-c5cn[nH]c5)cc4c32)ccc1C [QL-X-138]; settings: top dose 10.24 µM; top dose inferred
# Description: as §1
# Thapsigargin = compound: C/C=C(/C)C(=O)O[C@H]1C(C)=C2[C@H]([C@@H]1OC(=O)CCCCCCC)[C@@](C)(OC(C)=O)C[C@H](OC(=O)CCC)[C@@]1(O)[C@H]2OC(=O)[C@@]1(C)O [Thapsigargin]; settings: top dose 0.512 µM; top dose inferred
# Description: as §1
# GSK269962A = compound: CCn1c(-c2nonc2N)nc2cnc(Oc3cccc(NC(=O)c4ccc(OCCN5CCOCC5)cc4)c3)cc21 [GSK269962A]; settings: top dose 5 µM; screen: GDSC drug entry 1192; top dose inferred
# Description: as §1
# CP466722 = compound: COc1cc2ncnc(-n3nc(-c4ccccn4)nc3N)c2cc1OC [CP466722]; settings: top dose 16 µM; top dose inferred
# Description: as §1
# ABT-869 = compound: Cc1ccc(F)c(NC(=O)Nc2ccc(-c3cccc4[nH]nc(N)c34)cc2)c1 [ABT-869]; settings: top dose 1.024 µM; top dose inferred
# Description: as §1
# MPS-1-IN-1 = compound: COc1cc(N2CCC(O)CC2)ccc1Nc1cc(Nc2ccccc2S(=O)(=O)C(C)C)c2cc[nH]c2n1 [MPS-1-IN-1]; settings: top dose 20 µM; top dose inferred
# Description: as §1
# (5Z)-7-Oxozeaenol = compound: COc1cc(O)c2c(c1)/C=C/C[C@H](O)[C@H](O)C(=O)/C=C\C[C@H](C)OC2=O [(5Z)-7-Oxozeaenol]; settings: top dose 10 µM; top dose inferred
# Description: as §1
# [1] = top dose 2.56 µM, screen: GDSC drug entry 154
# [2] = top dose 10 µM, screen: GDSC drug entry 1241, top dose inferred
Cell Line,AUC (KU-55933),pIC50 (KU-55933),AUC (CHIR-99021; [1]),pIC50 (CHIR-99021; [1]),AUC (CHIR-99021; [2]),pIC50 (CHIR-99021; [2]),AUC (Zibotentan),pIC50 (Zibotentan),AUC (ABT-888),pIC50 (ABT-888),AUC (QL-X-138),pIC50 (QL-X-138),AUC (Thapsigargin),pIC50 (Thapsigargin),AUC (GSK269962A),pIC50 (GSK269962A),AUC (CP466722),pIC50 (CP466722),AUC (ABT-869),pIC50 (ABT-869),AUC (MPS-1-IN-1),pIC50 (MPS-1-IN-1),AUC ((5Z)-7-Oxozeaenol),pIC50 ((5Z)-7-Oxozeaenol)
"LS-180 (large intestine, adherent)",0.941,< 5.00,0.978,< 5.59,0.975,< 5.00,0.984,< 4.70,0.978,< 5.30,0.865,< 4.99,0.289,8.13,0.883,< 5.30,0.9,< 4.80,0.984,< 5.99,0.981,< 4.70,0.658,5.74
"MDA-MB-231 (breast, adherent)",0.981,< 5.00,0.986,< 5.59,0.963,< 5.00,0.986,< 4.70,0.975,< 5.30,0.818,5.20,0.153,8.61,0.904,< 5.30,0.866,4.80,0.981,< 5.99,0.986,< 4.70,0.537,6.10
"ME-180 (cervix, adherent)",0.946,< 5.00,0.985,< 5.59,0.984,< 5.00,0.986,< 4.70,0.978,< 5.30,0.535,6.10,0.896,< 6.29,0.893,< 5.30,0.762,5.23,0.977,< 5.99,0.906,< 4.70,0.541,6.09
"MG-63 (osteosarcoma, adherent)",0.94,< 5.00,0.958,< 5.59,0.906,< 5.00,0.984,< 4.70,0.983,< 5.30,0.984,< 4.99,0.208,8.43,0.9,< 5.30,0.984,< 4.80,0.984,< 5.99,0.984,< 4.70,0.611,5.88
"MHH-ES-1 (Ewing sarcoma, adherent)",0.945,< 5.00,0.727,6.16,0.984,< 5.00,0.983,< 4.70,0.929,< 5.30,0.502,6.19,0.196,8.39,0.782,5.69,0.658,5.57,0.985,< 5.99,0.695,5.36,0.731,5.55
"MOG-G-UVW (glioma, adherent)",0.92,< 5.00,0.948,< 5.59,0.9,< 5.00,0.987,< 4.70,0.976,< 5.30,0.736,5.53,0.267,8.15,0.746,5.81,0.762,5.25,0.986,< 5.99,0.948,< 4.70,0.557,6.05
"NCI-H460 (large cell lung carcinoma, adherent)",0.983,< 5.00,0.986,< 5.59,0.952,< 5.00,0.99,< 4.70,0.989,< 5.30,0.987,< 4.99,0.244,8.19,0.878,5.37,0.989,< 4.80,0.989,< 5.99,0.923,< 4.70,0.848,5.20
"NCI-H1437 (lung adenocarcinoma, adherent)",0.927,< 5.00,0.982,< 5.59,0.968,< 5.00,0.986,< 4.70,0.983,< 5.30,0.614,5.87,0.269,8.17,0.985,< 5.30,0.772,5.19,0.984,< 5.99,0.911,< 4.70,0.747,5.48
"NCI-H2023 (lung adenocarcinoma, adherent)",0.925,< 5.00,0.982,< 5.59,0.958,< 5.00,0.981,< 4.70,0.928,< 5.30,0.932,< 4.99,0.856,< 6.29,0.909,< 5.30,0.917,< 4.80,0.981,< 5.99,0.979,< 4.70,0.876,< 5.00
"OVCAR-5 (ovary, adherent)",0.981,< 5.00,0.981,< 5.59,0.929,< 5.00,0.981,< 4.70,0.976,< 5.30,0.823,5.11,0.14,> 8.70,0.885,< 5.30,0.841,4.84,0.953,< 5.99,0.95,< 4.70,0.481,6.26
"OVCAR-8 (ovary, adherent)",0.962,< 5.00,0.981,< 5.59,0.988,< 5.00,0.98,< 4.70,0.963,< 5.30,0.778,5.43,0.362,7.85,0.903,< 5.30,0.827,5.07,0.987,< 5.99,0.857,4.86,0.677,5.74
